The results in this text go back to ChEMBL document CHEMBL4888484, “Replenishing the malaria drug discovery pipeline: Screening and hit evaluation of the MMV Hit Generation Library 1 (HGL1) against asexual blood stage Plasmodium falciparum ,using a nano luciferase reporter read-out” (2022).

The structures appear in SMILES notation. Out of some 150,000 compounds screened, about 540 (0.36%) showed an effect of 50% or more. This is one part of the list.

Broadly, the % Inhibition is the relative decrease from the control value, in per cent.

The assay deals with Plasmodium falciparum. Nature of the assay: Primary screen in NF54 nanoGlo assay, in single point, at 2uM, 72h; a lower Z score goes with more inhibition. As to conditions: timepoint 72 hour. It counts as functional, Erythrocyte.
In the case of `Cn1nccc1CNC(=O)c1ccc(-c2ccco2)[nH]c1=O`, the “% Inhibition” value was -16% and the Z score worked out at 1.43.
For `CCS(=O)(=O)N1CCC(N(Cc2ccc(F)cc2)C(=O)CN(C2CC2)S(=O)(=O)c2ccc(C)cc2)CC1` the same measures were -11% and 1.06.
For `COCc1cc(NCCc2ccc3c(c2)OCO3)ncn1` the same measures were -5% and 0.59.
Take `CCOc1cccc(C[C@@H]2CC[C@H](CN3CCN(C(C)=O)CC3)O2)c1`: the “% Inhibition” value is recorded as -13% and the Z score is on record as 1.64.
The matching figures for `CCOc1ccc(-c2nc(C(=O)NCc3ccco3)cs2)cc1OC`: -7% and 0.66.
For the compound `Cc1nc(CN2C(=O)N[C@@](C)(c3ccc(Cl)s3)C2=O)no1`, the “% Inhibition” value is reported as -12% and the Z score is 1.05.
For `CNC(=O)Cn1cc(-c2c(C)n[nH]c2C)cn1` the same measures were 2% and -0.3.
`C=CCN(CCOC)C(=O)c1ccoc1`: the “% Inhibition” value is reported as -3% and the Z score turned out to be 0.41.
The matching figures for `O=S(=O)(NC1CCCCC1)c1cc(-c2nc(-c3ccc(Cl)cc3)no2)cs1`: -11% and 1.91.
The matching figures for `Cc1cccc(C(=O)N2CCC3(CC2)OC[C@@H](C(=O)N2CCN(C)CC2)N3C(=O)c2ccc(F)cc2)c1`: -4% and 0.47.
On to `CN1C(=O)C(=O)N(CN2CCC(Cc3ccccc3)CC2)C1=O`, for which the “% Inhibition” value is on record as -13% and the Z score is reported as 1.82.
Consider `O=C(C1C2CCC(O2)C1C(F)(F)F)N1CCc2ccnc(O)c2C1` (stereo not drawn), for which the “% Inhibition” value is on record as 1% and the Z score is -0.09.
Regarding `COc1ccc(-c2noc(Cn3cnc4ccccc4c3=O)n2)cc1`, the “% Inhibition” value is -14% and the Z score turned out to be 1.86.
For the compound `Cc1ccc([C@H]2C=NN(c3ccc(Br)cc3)C2=O)cc1`, the “% Inhibition” value amounted to 76% and the Z score is given as -2.14.
The matching figures for `CN(CCO)C(=O)Nc1cc(Cl)c(Cl)cc1F`: -5% and 1.02.
The matching figures for `COc1ccccc1N1CCN(C(=O)c2cc(-c3c(C)nn(C)c3C)[nH]n2)CC1`: 1% and -0.08.
The matching figures for `N#Cc1c2n(c(=O)n(CCOc3ccc(Cl)cc3)c1=O)CCC2`: -26% and 4.4.
In the case of `O=C(CCC1CCOC1)N1CCOCC1c1noc(-c2ccccc2)n1` (stereo not drawn), the “% Inhibition” value is on record as -12% and the Z score was determined as 2.37.
The matching figures for `Cc1nnsc1C(=O)NCc1ccc(-c2ccoc2)cc1`: -20% and 2.24.
As to `O=C(NC[C@]1(O)CCCc2occc21)Nc1ccccc1C(F)(F)F`, the “% Inhibition” value came to 19% and the Z score is reported as -2.4.
In the case of `CN(Cc1nnn(CC(=O)N2CCCc3ccccc32)n1)C(=O)c1ccccc1`, the “% Inhibition” value was -11% and the Z score came to 1.49.
For `COC(=O)CC1CCCN1C(=O)c1cn2c(n1)CCC(C)C2` (stereo not drawn) the same measures were 7% and -1.39.
On to `CC(=O)Nc1ccc(C(=O)N2CCC3(CC2)CC3(F)F)cc1`, for which the “% Inhibition” value is -8% and the Z score is listed as 1.61.
As for `O=C1CN(c2cc([C@H]3CCOC3)nc(N3CC(O)C3)n2)CCN1`, the “% Inhibition” value is on record as -9% and the Z score turned out to be 1.01.
For `Cc1cc(C)c(S(=O)(=O)Nc2ccc3c(c2)CCCN3S(=O)(=O)c2cccs2)cc1C` the same measures were 6% and -0.58.
The matching figures for `Cc1cccc(C)c1/N=C1/N=C(N2CCOCC2)N(c2ccc(Cl)cc2)C12CCCCC2`: 10% and -1.64.
For `Cc1cccc(O[C@@H](C)C(=O)NC2CCN(C3CC3)CC2)c1` the same measures were -3% and 0.41.
Turning to `Cc1cc(C)n(Cc2c(C(=O)NCc3cccc(Br)c3)noc2C)n1`, the “% Inhibition” value was found to be 4% and the Z score is recorded as -0.39.
For `COc1cccc(F)c1[C@H](C)NC(=O)N(C)Cc1cnccn1` the same measures were 8% and -0.79.
Consider `CC(C)n1c(CN2CCN(C)CC2)nc2cc(NC(=O)c3ccco3)ccc21`, for which the “% Inhibition” value is recorded as -16% and the Z score is recorded as 1.41.
For `CN(C)c1ncccc1C(=O)N1CC(S(=O)(=O)N2CCOCC2)C1` the same measures were -3% and 0.53.
The matching figures for `Cc1nc(CC(=O)NC2CCCC2)sc1C(=O)NCc1ccccc1`: -1% and 0.11.
As to `Cc1ccc(C)c(NC(=O)N2CCC3(CC2)c2nccn2CCN3C)c1`, the “% Inhibition” value is given as -9% and the Z score is given as 1.16.
Turning to `O=S(=O)(c1cccc(Cl)c1)N1CCC(c2cn(Cc3cccc(F)c3)c3ccccc23)CC1`, the “% Inhibition” value is listed as -17% and the Z score worked out at 1.51.
For `Cc1ccc(-c2c3c(=O)n(C)c(=O)n(C)c3c3n2-c2ccccc2N[C@@H]3c2cccc(C)c2)cc1` the same measures were -5% and 0.91.
The matching figures for `O=C(CN1CCCCCC1)N1CCc2sccc2C1`: -8% and 1.38.
Consider `Cc1cc(N2CC(C)(C(N)=O)C2)c2cccc(F)c2n1`, for which the “% Inhibition” value is reported as -7% and the Z score was determined as 1.4.
For the compound `Cc1cccc(CN2CC(c3nc(CCN(C)C(=O)C4CCOCC4)no3)C2)c1`, the “% Inhibition” value was found to be 5% and the Z score is -0.62.
Take `CC1CCCC(NC(=O)C2N(C(C)c3ccccc3)C(=O)[C@@H]3C(C(=O)Nc4cc(Cl)cc(Cl)c4)[C@@H]4C=C[C@]23O4)C1C` (stereo partly drawn): the “% Inhibition” value is -10% and the Z score came out at 1.13.
As for `C[C@H](NC(=O)CC1CC(C)(C)NC(C)(C)C1)c1ccc(O)cc1`, the “% Inhibition” value is recorded as -16% and the Z score is 1.57.
In the case of `CCCN(CC(=O)N1CCc2sccc2[C@@H]1COc1ccc(Cl)cc1)C(=O)c1cccc(F)c1`, the “% Inhibition” value was -12% and the Z score is 1.89.
On to `Cn1cc(C(=O)N2CCC3(CC2)CC(=O)N(CCCc2ccccc2)C3)cn1`, for which the “% Inhibition” value is on record as -11% and the Z score is reported as 1.4.
Turning to `O=c1c2c(ncn1CCc1nsc3ccccc13)NCCC2`, the “% Inhibition” value is recorded as -1% and the Z score is reported as 0.2.
In the case of `O=C1CC2(CCN(C(=O)c3cnccn3)CC2)CN1Cc1ccc(F)c(F)c1`, the “% Inhibition” value was determined as 2% and the Z score was -0.21.
Consider `COCc1ccc(C(=O)N[C@H](C#N)C(C)(C)C)o1`, for which the “% Inhibition” value came out at 0% and the Z score is on record as 0.03.
For the compound `O=C(c1ccc(Cl)cc1)c1ccccc1C(=O)n1nnc2ccccc21`, the “% Inhibition” value is listed as -1% and the Z score amounted to 0.19.
The matching figures for `Cc1cccnc1[C@@H](NC(=O)c1c[nH]c2ncccc12)C(C)(C)C`: -2% and 0.27.
The matching figures for `COc1ccc(C(NC(=O)[C@H]2CCCN(C(=O)N(C)C)C2)c2ccc(OC)cc2)cc1`: 11% and -2.05.
Regarding `Cc1cccc2c(CN3CCC(O)(CO)CC3)c(-c3ccccc3)[nH]c12`, the “% Inhibition” value came to 3% and the Z score is -0.43.
For `Cc1cccc(C(=O)NCCOC(N)=O)c1Cl` the same measures were 4% and -0.77.
The matching figures for `C#CCn1cnc(-c2ccccc2)c1NC(=O)CCc1ccc(C(C)C)cc1`: -7% and 0.8.
For `Cc1[nH]nc(CCC(=O)N2CCC(CN3CCCC3=O)CC2)c1C`, the “% Inhibition” value was -6% and the Z score stood at 0.73.
For `O=S(=O)(c1ccco1)N1CC[C@H](Oc2ccccc2)C1`, the “% Inhibition” value came out at 35% and the Z score is reported as -1.14.
For the compound `CN(Cc1cnc(NS(=O)(=O)c2ccccc2)nc1)C1CCOCC1`, the “% Inhibition” value is given as -23% and the Z score came out at 2.25.
Take `Cc1ncn(CC(=O)N2CC[C@H](Oc3ccc(N(C)C)nn3)C2)c(=O)c1C`: the “% Inhibition” value is reported as -12% and the Z score is 1.4.
For `CC(C)(CO)NC(=O)C[C@H](O)c1cc(Cl)cc(Cl)c1` the same measures were 6% and -0.5.
For `Cn1cc(-c2cc(CNC(=O)c3ccccc3)ccn2)cn1` the same measures were -10% and 1.48.
Take `C[C@H]1c2ccsc2CCN1c1ncnc2nc[nH]c12`: the “% Inhibition” value is reported as -6% and the Z score is recorded as 0.99.
For `CC1(C)C[C@@H](NC(=O)[C@H]2CC[C@H](Cn3cnc4ccccc4c3=O)CC2)CCO1` the same measures were -6% and 0.79.
For `CCC[C@H]1CN(c2cc(C)c3cccc(OC)c3n2)C[C@@H]1NC(C)=O`, the “% Inhibition” value is -2% and the Z score turned out to be 0.29.
`Cn1cccc1-c1nnc(C2(c3ccccc3)CCOCC2)o1`: the “% Inhibition” value is -7% and the Z score came out at 1.
As to `Cc1ccc(C)c(NC(=O)CC(=O)NCCN2CCCOC2=O)c1`, the “% Inhibition” value is -9% and the Z score amounted to 1.41.
For `O=C(c1cnc(O)cc1C(F)(F)F)N1CCc2nccnc2C1` the same measures were -13% and 1.56.
For `O=S(=O)(c1cccc(-c2nnc(-c3ccccc3Br)o2)c1)N1CCCCC1` the same measures were 1% and -0.08.
For `CC(C)(C)c1ccc(-c2cc3nc(-c4ccncc4)cc(C(F)(F)F)n3n2)cc1` the same measures were 29% and -3.27.
Turning to `CCn1nc(-c2nn3c(Cc4c(C)noc4C)nnc3s2)cc1C`, the “% Inhibition” value is on record as -4% and the Z score was 0.49.
The matching figures for `O=C(NC1CCCCC1)[C@@]1(CCO)CC12CCN(c1ncccn1)CC2`: -5% and 0.95.
Regarding `CCc1nsc(NCCNC(CC)CC)n1`, the “% Inhibition” value worked out at 8% and the Z score is recorded as -1.42.
The matching figures for `CC(=O)N1CCN(c2nc(C3CC3)nc(C)c2Cc2cccc(C)c2)CC1`: -12% and 1.59.
The matching figures for `COCC1(CNC(=O)[C@@H](C)CN2CCOCC2)CCC1`: 2% and -0.31.
The matching figures for `CC1(C)[C@H]2CC=C(CN3CCN(C(=O)c4nc[nH]n4)CC3)[C@@H]1C2`: -10% and 1.71.
Regarding `CC1(C)C2CN(c3ncc(C(F)(F)F)s3)CC21` (stereo not drawn), the “% Inhibition” value was -3% and the Z score was 0.39.
In the case of `NC(=O)CN(CCC1CCCCC1)C[C@H]1CCCS(=O)(=O)C1`, the “% Inhibition” value was -8% and the Z score was determined as 1.4.
For `NC(=O)NCc1cc(F)c(Cl)cc1F` the same measures were -7% and 0.66.
The matching figures for `CC(NC(=O)c1ccc2c(c1)OCCO2)C1CCCO1` (stereo not drawn): -7% and 0.98.
For `O=C(NC[C@H]1CCCN1c1nccs1)C1CCCC1` the same measures were -14% and 2.71.
In the case of `COCCn1ccn2nc(C(F)(F)F)cc2c1=O`, the “% Inhibition” value was -3% and the Z score is 0.56.
The matching figures for `COc1cc(CN2C[C@@H]3CC[C@H]2CN(C(=O)c2ccncc2)C3)ccc1F`: -8% and 1.47.
For `CCCN1C(=O)N[C@@H](CC(=O)N(C)CCc2c(C)n[nH]c2C)C1=O` the same measures were -3% and 0.54.
For the compound `O=C(NCc1cncc(N2CCCC2=O)c1)c1cncc(Br)c1`, the “% Inhibition” value was -8% and the Z score came out at 1.47.
The matching figures for `CC(C)CN1CCn2cc(C(=O)NCc3cccc(Br)c3)nc2C1`: 3% and -0.51.
The matching figures for `Cc1n[nH]c(C)c1CC(=O)N1CCC2(C=Cc3ccccc3O2)CC1`: -1% and 0.15.
For the compound `Cc1ccc(OCc2ncnn2C)cc1F`, the “% Inhibition” value is recorded as -13% and the Z score is on record as 1.21.
The matching figures for `Cc1c(C(=O)N[C@H]2CCOC2)cnn1-c1ncc2c(n1)-c1ccccc1CCC2`: 1% and -0.19.
